Assay results: paper PMC8986152
No constants are given. Whether binding was seen depends on the method and setting. In cells and extracts the contact can be indirect. Some results given as binding are weak or reduced against the parent protein; the word gives no strength. For some assays here: Sequences can lack the tags named with a protein. Blank lines part the entries; values can stand above or below the molecule they belong to.

Sequences of proteins named here, by UniProt entry; tags and fusion partners are left off. A change or cut given only in a name is not applied to a line headed by its entry. A line that says so, or that is headed by a name, gives the form on record, which may keep a tag or linker.
VSV-PDE4D7 (Q08499-11, form named): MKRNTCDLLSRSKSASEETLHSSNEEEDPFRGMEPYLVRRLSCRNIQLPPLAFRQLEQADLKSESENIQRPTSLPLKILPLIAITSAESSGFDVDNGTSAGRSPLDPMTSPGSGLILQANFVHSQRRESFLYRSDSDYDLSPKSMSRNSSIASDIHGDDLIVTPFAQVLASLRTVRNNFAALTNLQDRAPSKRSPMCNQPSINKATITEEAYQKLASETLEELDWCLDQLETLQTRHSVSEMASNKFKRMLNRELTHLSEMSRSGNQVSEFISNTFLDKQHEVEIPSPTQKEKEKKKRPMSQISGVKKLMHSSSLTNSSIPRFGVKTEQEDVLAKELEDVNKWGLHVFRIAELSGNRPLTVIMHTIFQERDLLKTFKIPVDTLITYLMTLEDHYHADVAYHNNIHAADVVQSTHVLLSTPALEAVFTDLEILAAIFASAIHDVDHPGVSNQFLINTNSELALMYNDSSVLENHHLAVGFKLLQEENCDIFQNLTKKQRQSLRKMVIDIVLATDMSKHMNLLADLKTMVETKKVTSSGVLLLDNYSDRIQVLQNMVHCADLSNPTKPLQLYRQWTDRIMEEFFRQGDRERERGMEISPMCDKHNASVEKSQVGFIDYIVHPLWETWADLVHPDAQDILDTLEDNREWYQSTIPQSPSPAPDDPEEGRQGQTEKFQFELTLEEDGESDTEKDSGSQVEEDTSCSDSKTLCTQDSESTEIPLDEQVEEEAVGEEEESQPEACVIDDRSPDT

Columns and labels:
myc-POPDC1 [1] = target: T1, myc-POPDC1 (UniProt Q8NE79); experiment: co-IP; HEK293 transiently transfected with myc-POPDC1 and one VSV-tagged PDE4; POPDC1 precipitated by myc (myc-agarose resin / Protein G sepharose, 4 °C overnight), PDE4 detected by VSV blot; CO-IP buffer with 150 mM NaCl, 1% Triton X-100
T1 sequence: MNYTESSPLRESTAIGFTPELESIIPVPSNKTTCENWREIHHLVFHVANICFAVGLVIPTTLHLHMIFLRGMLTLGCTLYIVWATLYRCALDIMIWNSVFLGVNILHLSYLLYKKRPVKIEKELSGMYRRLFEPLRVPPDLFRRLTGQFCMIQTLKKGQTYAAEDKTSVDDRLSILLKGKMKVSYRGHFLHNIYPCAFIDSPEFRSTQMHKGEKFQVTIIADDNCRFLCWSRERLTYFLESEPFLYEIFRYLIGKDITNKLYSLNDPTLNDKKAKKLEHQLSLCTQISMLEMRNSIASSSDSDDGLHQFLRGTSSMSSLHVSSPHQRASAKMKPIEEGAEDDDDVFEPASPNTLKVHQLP

[2] = target: T2, POPDC1, endogenous in neonatal rat ventricular myocytes (rat (endogenous in neonatal rat ventricular myocytes)) (UniProt Q3BCU4); experiment: proximity ligation; Duolink PLA in fixed NRVMs, endogenous proteins; BVES antibody with pan-PDE4A, PDE4B or PDE4D antibody
T2 sequence: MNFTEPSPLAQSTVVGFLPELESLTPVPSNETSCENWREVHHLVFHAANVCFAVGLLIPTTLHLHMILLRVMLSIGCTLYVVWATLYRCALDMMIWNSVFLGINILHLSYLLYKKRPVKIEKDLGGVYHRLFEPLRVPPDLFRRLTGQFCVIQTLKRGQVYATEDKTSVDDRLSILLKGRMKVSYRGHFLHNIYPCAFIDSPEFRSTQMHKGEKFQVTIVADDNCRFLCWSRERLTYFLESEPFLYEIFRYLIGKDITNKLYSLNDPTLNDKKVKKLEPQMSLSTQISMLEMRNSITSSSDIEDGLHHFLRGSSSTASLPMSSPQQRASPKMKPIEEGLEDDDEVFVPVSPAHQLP

myc-POPDC1 [3] = target: T1, myc-POPDC1; experiment: proximity ligation; Duolink PLA in fixed HEK293 cells transiently transfected with POPDC1 and VSV-tagged PDE4A
myc-POPDC1 [4] = target: T1, myc-POPDC1; experiment: co-IP; HEK293 transfected with POPDC1-myc and PDE4A5-VSV, cells treated with 10 μM scrambled or disruptor peptide; myc-conjugated resin; the blocked pair
myc-POPDC1 [5] = target: T1, myc-POPDC1; experiment: proximity ligation; HEK293 transfected with POPDC1-myc and PDE4A5-VSV, treated with 10 μM scrambled or disruptor peptide for two hours before fixation; the blocked pair
myc-POPDC1 [6] = target: T1, myc-POPDC1; experiment: co-IP; HEK293 transiently transfected with myc-POPDC1 and one VSV-tagged PDE4; POPDC1 precipitated by myc (myc-agarose resin / Protein G sepharose, 4 °C overnight), PDE4 detected by VSV blot; CO-IP buffer with 150 mM NaCl, 1% Triton X-100; remark: listed apart in the source
[7] = target: T2, POPDC1, endogenous in neonatal rat ventricular myocytes (rat (endogenous in neonatal rat ventricular myocytes)); experiment: co-IP; endogenous proteins in NRVM lysate; POPDC1 (BVES) antibody precipitation, blotted for PDE4A5
[8] = target: T2, POPDC1, endogenous in neonatal rat ventricular myocytes (rat (endogenous in neonatal rat ventricular myocytes)); experiment: proximity ligation; NRVMs, endogenous proteins, treated with 10 μM scrambled or disruptor peptide for two hours before fixation; the blocked pair

Molecule: VSV-PDE4D7 (from UniProt Q08499-11 1-748) (enzyme)
- binding (myc-POPDC1 [1]): no binding

Molecule: VSV-PDE4B1 (from UniProt Q07343-1 1-736) (enzyme)
- binding (myc-POPDC1 [1]): no binding

B2: VSV-PDE4A5 (enzyme, UniProt O89084 1-844)
chain: MEPPAAPSERSLSLSLPGPREGQATLKPPPQHLWRQPRTPIRIQQRGYSDSAERSEPERSPHRPIERADAVDTGDRPGLRTTRMSWPSSFHGTGTGGGSSRRLEAENGPTPSPGRSPLDSQASPGLMLHAGAATSQRRESFLYRSDSDYDMSPKTMSRNSSVASEAHGEDLIVTPFAQVLASLRNVRSNFSLLTNVPIPSNKRSPLGGPPSVCKATLSEETCQQLARETLEELDWCLEQLETMQTYRSVSEMASHKFKRMLNRELTHLSEMSRSGNQVSEYISNTFLDKQHEVEIPSPTPRQRPFQQPPPAAVQQAQPMSQITGLKKLVHTGSLNINVPRFGVKTDQEDLLAQELENLSKWGLNIFCVSEYAGGRSLSCIMYTIFQERDLLKKFHIPVDTMMTYMLTLEDHYHADVAYHNSLHAADVLQSTHVLLATPALDAVFTDLEILAALFAAAIHDVDHPGVSNQFLINTNSELALMYNDESVLENHHLAVGFKLLQEENCDIFQNLSKRQRQSLRKMVIDMVLATDMSKHMTLLADLKTMVETKKVTSSGVLLLDNYSDRIQVLRNMVHCADLSNPTKPLELYRQWTDRIMAEFFQQGDRERERGMEISPMCDKHTASVEKSQVGFIDYIVHPLWETWADLVHPDAQDILDTLEDNRDWYHSAIRQSPSPTLEEEPGVLSDPALPDKFQFELTLEEEDEEDSLEVPGLPCTEETLLAPHDTRAQAMEQSKVKGQSPAVVEVAESLKQETASAHGAPEESAEAVGHSFSLETSILPDLRTLSPSEEAQGLLGLPSMAAEVEAPRDHLAAMRACSACSGTSGDNSAVISAPGRWGSGGDPA
- binding (myc-POPDC1 [3]): binds
- binding (myc-POPDC1 [4]): binds
- binding (myc-POPDC1 [5]): binds
- binding (myc-POPDC1 [6]): binds

B4: PDE4B, endogenous in neonatal rat ventricular myocytes (enzyme, UniProt P14646 1-736)
chain: MKKSRSVMAVTADDNLKDYFECSLSKSYSSSSYTLGIDLWRGRRCCSGNLQLPPLSQRQSERARTPEGDGISRPTTLPLTTLPSIAITTVSQECFDVENGPSPGRSPLDPQASSSSGLVLHAAFPGHSQRRESFLYRSDSDYDLSPKAMSRNSSLPSEQHGDDLIVTPFAQVLASLRIVRNNFTLLTNLHGAPNKRSPAASQAPVTRVSLQEESYQKLAMETLEELDWCLDQLETIQTYRSVSEMASNKFKRMLNRELTHLSEMSRSGNQVSEYISNTFLDKQNDVEIPSPTQKDREKKKKQQLMTQISGVKKLMHSSSLNNTSISRFGVNTENEDHLAKELEDLNKWGLNIFNVAGYSHNRPLTCIMYAIFQERDLLKTFKISSDTFVTYMMTLEDHYHSDVAYHNSLHAADVAQSTHVLLSTPALDAVFTDLEILAAIFAAAIHDVDHPGVSNQFLINTNSELALMYNDESVLENHHLAVGFKLLQEEHCDIFQNLTKKQRQTLRKMVIDMVLATDMSKHMSLLADLKTMVETKKVTSSGVLLLDNYTDRIQVLRNMVHCADLSNPTKSLELYRQWTDRIMEEFFQQGDKERERGMEISPMCDKHTASVEKSQVGFIDYIVHPLWETWADLVQPDAQDILDTLEDNRNWYQSMIPQSPSPPLDERSRDCQGLMEKFQFELTLEEEDSEGPEKEGEGPNYFSSTKTLCVIDPENRDSLEETDIDIATEDKSLIDT
- binding [2]: binds weakly

The remaining lines, values ahead:

- binding [2]: binds weakly
B1: PDE4D, endogenous in neonatal rat ventricular myocytes (enzyme, UniProt P14270 1-803)
chain: MEAEGSSVPARAGSHEGSDSSGGAALKAPKHLWRHEQHHQYPLRQPQFRLLHPHHHLPPPPPPSPQPQLQPPPPPPLPPPPPPPGATRGRYASSGASRVRHRGYSDTERYLYCRAMDRTSYAVETGHRPGLKKSRMSWPSSFQGLRRFDVDNGTSAGRSPLDPMTSPGSGLILQANFVHSQRRESFLYRSDSDYDLSPKSMSRNSSIASDIHGDDLIVTPFAQVLASLRTVRNNFAALTNLQDRAPSKRSPMCNQPSINKATITEEAYQKLASETLEELDWCLDQLETLQTRHSVSEMASNKFKRMLNRELTHLSEMSRSGNQVSEYISNTFLDKQHEVEIPSPTQKEKEKKKRPMSQISGVKKLMHSSSLTNSCIPRFGVKTEQEDVLAKELEDVNKWGLHVFRIAELSGNRPLTVIMHTIFQERDLLKTFKIPVDTLITYLMTLEDHYHADVAYHNNIHAADVVQSTHVLLSTPALEAVFTDLEILAAIFASAIHDVDHPGVSNQFLINTNSELALMYNDSSVLENHHLAVGFKLLQEENCDIFQNLTKKQRQSLRKMAIDIVLATDMSKHMNLLADLKTMVETKKVTSSGVLLLDNYSDRIQVLQNMVHCADLSNPTKPLQLYRQWTDRIMEEFFRQGDRERERGMEISPMCDKHNASVEKSQVGFIDYIVHPLWETWADLVHPDAQDILDTLEDNREWYQSTIPQSPSPAPDDQEDGRQGQTEKFQFELTLEEDGESDTEKDSGSQVEEDTSCSDSKTLCTQDSESTEIPLDEQVEEEAVAEEESQPQTGVADDCCPDT

- binding [7]: binds
- binding [2]: binds
- binding [8]: binds
B3: PDE4A (PDE4A5), endogenous in neonatal rat ventricular myocytes (enzyme, UniProt P54748-1 1-844)
chain: MEPPAAPSERSLSLSLPGPREGQATLKPPPQHLWRQPRTPIRIQQRGYPDSAERSETERSPHRPIERADAVDTGDRPGLRTTRMSWPSSFHGTGTGGGSSRRLEAENGPTPSPGRSPLDSQASPGLVLHAGATTSQRRESFLYRSDSDYDMSPKAVSRSSSVASEAHAEDLIVTPFAQVLASLRSVRSNFSLLTNVPIPSNKRSPLGGPPSVCKATLSEETCQQLARETLEELDWCLEQLETMQTYRSVSEMASHKFKRMLNRELTHLSEMSRSGNQVSEYISNTFLDKQNEVEIPSPTPRQRAFQQPPPSVLRQSQPMSQITGLKKLVHTGSLNTNVPRFGVKTDQEDLLAQELENLSKWGLNIFCVSEYAGGRSLSCIMYTIFQERDLLKKFHIPVDTMMMYMLTLEDHYHADVAYHNSLHAADVLQSTHVLLATPALDAVFTDLEILAALFAAAIHDVDHPGVSNQFLINTNSELALMYNDESVLENHHLAVGFKLLQEENCDIFQNLSKRQRQSLRKMVIDMVLATDMSKHMTLLADLKTMVETKKVTSSGVLLLDNYSDRIQVLRNMVHCADLSNPTKPLELYRQWTDRIMAEFFQQGDRERERGMEISPMCDKHTASVEKSQVGFIDYIVHPLWETWADLVHPDAQDILDTLEDNRDWYHSAIRQSPSPPLEEEPGGLGHPSLPDKFQFELTLEEEEEEDSLEVPGLPTTEETFLAAEDARAQAVDWSKVKGPSTTVVEVAERLKQETASAYGAPQESMEAVGCSFSPGTPILPDVRTLSSSEEAPGLLGLPSTAAEVEAPRDHLAATRACSACSGTSGDNSAIISAPGRWGSGGDPA
